Source: PMC4336329 (PLoS ONE, 2015)
Among all 310,000 compounds or so, about 2,200 (0.71%) showed an effect of 50% or more. Effects have a minus sign here. This is one part of the list.

target: human ether-à-go-go-related gene (hERG) potassium channel (human, UniProt Q12809); assay: primary screen, population patch clamp on CHO cells stably expressing hERG
Sequence (Q12809 whole entry, looked up): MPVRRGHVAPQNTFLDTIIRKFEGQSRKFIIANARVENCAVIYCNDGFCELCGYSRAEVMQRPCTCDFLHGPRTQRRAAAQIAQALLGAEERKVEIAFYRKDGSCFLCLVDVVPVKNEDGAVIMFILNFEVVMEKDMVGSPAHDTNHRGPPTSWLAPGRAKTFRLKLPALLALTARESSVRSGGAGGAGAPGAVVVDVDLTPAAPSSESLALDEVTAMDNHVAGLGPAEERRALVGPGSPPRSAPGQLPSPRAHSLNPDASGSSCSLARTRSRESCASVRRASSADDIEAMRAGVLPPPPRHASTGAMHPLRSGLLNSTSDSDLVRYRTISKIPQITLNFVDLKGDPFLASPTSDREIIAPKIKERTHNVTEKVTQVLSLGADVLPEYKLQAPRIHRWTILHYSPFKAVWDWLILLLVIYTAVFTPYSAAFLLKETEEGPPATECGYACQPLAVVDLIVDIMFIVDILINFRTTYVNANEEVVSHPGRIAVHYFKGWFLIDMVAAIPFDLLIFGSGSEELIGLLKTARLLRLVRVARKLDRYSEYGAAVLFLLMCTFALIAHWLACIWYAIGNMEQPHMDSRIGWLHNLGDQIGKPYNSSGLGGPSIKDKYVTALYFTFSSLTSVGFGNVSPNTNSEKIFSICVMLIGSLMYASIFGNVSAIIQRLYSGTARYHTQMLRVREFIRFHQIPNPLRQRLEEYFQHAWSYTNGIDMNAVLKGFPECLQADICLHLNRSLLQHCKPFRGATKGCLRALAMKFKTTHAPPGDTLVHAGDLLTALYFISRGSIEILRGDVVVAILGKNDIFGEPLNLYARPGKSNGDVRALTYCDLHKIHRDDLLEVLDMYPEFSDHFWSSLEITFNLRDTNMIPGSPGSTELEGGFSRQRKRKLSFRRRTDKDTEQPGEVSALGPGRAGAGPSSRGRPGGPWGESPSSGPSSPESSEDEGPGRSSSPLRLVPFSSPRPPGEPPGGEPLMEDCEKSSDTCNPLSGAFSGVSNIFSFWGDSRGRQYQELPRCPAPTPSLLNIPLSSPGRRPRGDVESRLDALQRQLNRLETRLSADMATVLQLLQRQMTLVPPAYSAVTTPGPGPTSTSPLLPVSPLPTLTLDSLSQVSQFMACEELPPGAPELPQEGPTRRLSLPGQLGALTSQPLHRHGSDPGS

| SMILES | hERG current change (%, negative = inhibition) at 1uM |
| --- | --- |
| COc1cccc(NC(=O)c2nc(S(C)(=O)=O)ncc2Cl)c1 | 14.4% |
| COc1cccc(CC2(CO)CCN(C(=O)NC3CCCCC3)CC2)c1 | 7.84% |
| COC(=O)C1=C(c2ccc3ccccc3c2)C[C@@H]2CC[C@H]1N2C(=O)NCCCOC(C)C | 7.39% |
| COc1cc(C(=O)NC2CCCCCCC2)cc(OC)c1OC | 6.38% |
| CC(C)(C)S(=O)(=O)c1ccc(S(=O)(=O)C(C)(C)C)s1 | 14.1% |
| Cc1nn(C)c(N)c1[N+](=O)[O-] | 7.72% |
| CCN(CC(=O)Nc1c(F)cccc1F)C(=O)CCNC(=O)c1ccccc1OC | -5.73% |
| CSCC[C@H](NC(=O)Nc1cccc(Br)c1)C(=O)O | 0.179% |
| CCN(CC)c1ncnc2ccc(Br)cc12 | 12.5% |
| O=C(CNC(=O)c1cccc(F)c1)OCCOc1cccc(Cl)c1 | 8.24% |
| O=C(Nc1ccc(O)cc1)/C(=C/c1ccco1)NC(=O)c1ccccc1 | 14.9% |
| COc1ccc(CC(=O)NCc2ccc3c(c2)OCO3)cc1 | 7.15% |
| CCc1ccc(Nc2ccc(C(=O)O)cc2[N+](=O)[O-])cc1 | 10.1% |
| O=C(N1CCC(n2nc(-c3ccccc3)oc2=O)CC1)C1(c2ccccc2)CC1 | 7.44% |
| O=c1[nH]c(/C=C\c2cccc(F)c2)nc(O)c1[N+](=O)[O-] | 16% |
| COCC(=O)Nc1nc2ccc(S(C)(=O)=O)cc2s1 | 8.71% |
| CCOC(=O)c1cc(-c2ccco2)nn1-c1ccc(C)cc1 | 9.57% |
| Cn1nnc(-c2ccc(OCc3ccccc3F)cc2)n1 | 4.1% |
| Cn1c(=O)c2c(n(Cc3ccccc3)c1=O)NC(=O)C2CC(=O)NCc1cccc(Cl)c1 (stereo not shown) | 9.58% |
| Cn1cc(CN2CCN(CCO)CC2)c(-c2ccc(Oc3ccccc3)cc2)n1 | 8.73% |

| SMILES | hERG current change (%, negative = inhibition) at 1uM |
| --- | --- |
| O=C(O)C=C1CCN(c2ncc(C(F)(F)F)cc2Cl)CC1 | 15.2% |
| CCOC(=O)C1CCCNC1=O (stereo not shown) | 11.4% |
| OC(CNCCc1ccccc1)c1ccccc1 (stereo not shown) | 15.9% |
| COc1ccc(/C=N/N2CCN(C)CC2)cc1O | 8.41% |
| Cc1nn(Cc2ccc(C(=O)n3cccn3)o2)c(C)c1Br | 1.86% |
| O=C(c1cc(Cl)ccc1[N+](=O)[O-])n1cnc2ccccc21 | 3.35% |
| O=C(c1cccc(C(F)(F)F)c1)N1CCOc2ccccc21 | 4.27% |
| O=C(Nc1cccc([N+](=O)[O-])c1)c1ccc(CSc2ccccc2)cc1 | 2.11% |
| O=C(c1ccc2c(=O)n(-c3ccccc3)c(=S)[nH]c2c1)N1CCCCC1 | 10.5% |
| COc1ccccc1OCCNc1cc(N2CCOCC2)ccc1[N+](=O)[O-] | 2.03% |
| CCOC(=O)c1c(NC(=O)Nc2cccc(Cl)c2)sc(C)c1C | -10.6% |
| CCc1ccccc1NC(=O)CCN1C(=O)C2C3CCC(C3)C2C1=O (stereo not shown) | 9.67% |
| Oc1c(Cl)cccc1C=Nc1cc(C(F)(F)F)ccc1N1CCCC1 | -11.4% |
| COC(=O)c1sccc1NC(=O)CN(C)NS(=O)(=O)c1ccc([N+](=O)[O-])cc1 | 13.2% |
| O=C(NC(=S)NCc1nc2ccccc2[nH]1)c1ccccc1F | -4.6% |
| N#Cc1c(N)oc(-c2ccccc2)c1-c1ccccc1 | 3.55% |
| COc1cccc2[nH]c3c(N4CCCC(C)C4)ncnc3c12 (stereo not shown) | 9.4% |
| O=[N+]([O-])c1ccc(S(=O)(=O)N2CCC3(CC2)OCCN3S(=O)(=O)c2cccs2)cc1 | -23% |
| COc1ccc(CCNC(=O)CSc2nnc(CNC(=O)c3ccco3)o2)cc1OC | 0.602% |
| COc1ccc(C(=O)N(Cc2ccc(N(C)C)cc2)C2CCS(=O)(=O)C2)cc1 (stereo not shown) | 11.5% |

| SMILES | hERG current change (%, negative = inhibition) at 1uM |
| --- | --- |
| O=C(O)C12CC3CC(C1)CC(n1ncc(N4CCN(c5ccccc5)CC4)c(Cl)c1=O)(C3)C2 | 6.71% |
| CCCOc1ccc2c3c(c(=O)oc2c1OCCC)CCC3 | 13.2% |
| Cc1ncc([N+](=O)[O-])n1CC(=O)Nc1ccc(F)cc1 | 7.42% |
| NC(=O)c1ccccc1N(Cc1ccccc1)S(=O)(=O)c1ccccc1 | 13.6% |
| COc1ccc(CN2C(=O)C(Cc3ccccc3)Nc3ncnc(N4CCOCC4)c32)cc1.O=C(O)C(F)(F)F (stereo not shown) | 7.13% |
| Cc1cccc(NC(=O)CN(C)S(=O)(=O)c2ccccc2)n1 | 2.63% |
| CCN1CCN(C(=O)c2cc(COc3ccc4ncccc4c3)on2)CC1 | 4.87% |
| CCOC(=O)CN1C(=O)C(CC)Oc2ccc(Cl)cc21 (stereo not shown) | -1.65% |
| Cc1ccc(N=Nc2ccc(O)c(P(=O)(c3ccccc3)c3ccccc3)c2)cc1 | -13.8% |
| CCOC(=O)C1CCN(C(=O)c2ccc3snnc3c2)CC1 | 7.83% |
| O=C(O)c1cc(Br)ccn1 | 7.31% |
| Cc1ccc(NC(=O)CCC(=O)NNC(=O)c2cccs2)c(C)c1 | -1.52% |
| Cc1cc(=O)n2[nH]cc(C(=O)O)c2n1 | -1.64% |
| O=C(Nc1ccc(S(=O)(=O)N2C[C@@H]3C[C@@H](C2)c2cccc(=O)n2C3)cc1)c1ccc(F)cc1 | 4.78% |
| Cc1onc(-c2ccccc2)c1C(=O)N1CCN(CCc2ccccc2)CC1 | 3.48% |
| CS(=O)(=O)N(CCC#N)Cc1ccc(/C=C2\C(=O)Nc3ccccc32)o1 | 5.72% |
| Cc1ccc(N=CC2=C(O)CC(c3ccccc3Cl)CC2=O)cc1 (stereo not shown) | -4.29% |
| CCOC(=O)c1sc2nc(C)nc(NCCc3ccccn3)c2c1C | 18.3% |
